# Measured values from ChEMBL document CHEMBL4888484, “Replenishing the malaria drug discovery pipeline: Screening and hit evaluation of the MMV Hit Generation Library 1 (HGL1) against asexual blood stage Plasmodium falciparum ,using a nano luciferase reporter read-out” (2022).
# The whole screen tested about 150,000 compounds, of which about 540 (0.36%) showed an effect of 50% or more. This is one part of the list.
# Test system: Plasmodium falciparum
# Assay: Primary screen in NF54 nanoGlo assay, in single point, at 2uM, 72h; a lower Z score goes with more inhibition
# Assay type: functional, Erythrocyte
# Conditions: timepoint 72 hour
Structure (SMILES),% Inhibition,Z score
Cn1nnc(C(=O)N2CCC(c3ccccc3)(N3CCCC3)CC2)n1,7%,-1.29
CN(CC(C)(CO)CO)c1ncc(-c2ccccc2)s1,37%,-4.72
CC1CC1C(=O)Nc1cc(C(F)(F)F)n[nH]1 (centres undefined),-25%,4.06
CC(c1ccccn1)N(C)CC(O)c1ccc(F)cn1 (centres undefined),-2%,0.3
CCCOCC(=O)N[C@H]1CN(Cc2[nH]nc(C)c2Cl)C[C@@H]1C1CC1,4%,-0.51
CC(C)c1nnc2c(NC[C@@H](C)CC(F)(F)F)nccn12,1%,-0.14
CN1CCC(NC(=O)C2(O)CCCCC2)C1c1ccc(Cl)cc1 (centres undefined),-17%,1.69
Cc1c(CN2CC[C@H](C3CCCCC3)C2)cnn1C,-8%,1.31
C[C@H](NC(=O)c1ccc(-c2ncon2)cc1)C1CCN(CC(F)(F)F)CC1,4%,-0.58
Cc1cc(Cl)c2ncc(C#N)c(N3CC[S+]([O-])CC(C)C3)c2c1 (centres undefined),-10%,0.89
CC(O)CN1CCN(C(=O)c2ccc(-c3ccccc3)[nH]2)C(C)C1 (centres undefined),-4%,0.5
O=C(c1csc(S(=O)(=O)NCc2cccs2)c1)N1CCCC1,-11%,1.14
CC(C)c1nnc(N2CCC(NC(=O)c3ccccc3)CC2)o1,-11%,2.01
CCC(CC)(CNC(=O)c1coc(C2CCOCC2)n1)OC,-2%,0.41
O=C(NCCNC1=NS(=O)(=O)c2ccccc21)c1ccco1,-11%,1.4
Cc1cccc(OCc2nc(C)c(C(=O)N[C@@H](C)c3cccs3)s2)c1,-29%,2.55
CCS(=O)(=O)N1CCN(C(=O)[C@@H](O)COc2ccccc2C)CC1,-3%,0.38
O=C(Cn1cc(Br)cn1)N[C@@H]1Cc2ccccc2[C@H]1O,0%,-0.08
COC(=O)C1=C(c2ccccc2)S/C(=C2/C(=S)C(C)(C)N(C(C)=O)c3ccccc32)S1,-10%,1.3
CCC(CO)N1CCN(S(=O)(=O)C(C)CC(C)C)CC1 (centres undefined),-6%,0.86
CC(C)C1N(C(=O)c2ccc(C(=O)N3CC(C)(C)C3C(C)C)nc2)CC1(C)C (centres undefined),-4%,0.39
Cc1occc1C(=O)Nc1cccc(N2CCCC2=O)c1,5%,-0.53

Structure (SMILES),% Inhibition,Z score
C#CCN(CC#CC)Cc1nnc(C)o1,-18%,2.16
C[C@@H](C(=O)Nc1ccc2c(c1)OCCO2)S(=O)(=O)Cc1nc(Cc2ccccc2)no1,-4%,0.6
C[C@H]1CCCCN1S(=O)(=O)c1ccc2c(cnc(=O)n2CC(=O)NCCc2ccccc2)c1,27%,-3.03
Cc1ncoc1C(=O)N1CC2(C[C@@H](c3nc(-c4ccncc4)no3)N(C)C2)C1,7%,-1.07
CC(=O)NC1CN(C(=O)N[C@@H](Cc2ccccc2)c2cccs2)C1,-10%,1.78
C[C@@](O)(CNC(=O)c1ccno1)Cc1ccsc1,-22%,3.23
COc1cc(C)ccc1OCCON1C(=O)CCC1=O,-2%,0.3
C[C@@H](CNCC(C)(C)NS(C)(=O)=O)c1ccc(F)cc1,-16%,1.44
COc1ccccc1CCNC(=O)c1cccc(-n2ccnn2)c1,32%,-3.64
Cc1[nH]c2ccccc2c1C1CCN(C(=O)c2ccccc2Br)CC1,32%,-0.57
COCCN1CCN(c2nc(-c3cccc(OC)c3)c3c(N)n(C)nc3n2)CC1,-3%,0.32
CCOc1ccc(C(=O)NCC(=O)N2CCOCC[C@@H]2C)cc1,-5%,0.87
NC(=O)CCn1cc(CNCCc2ccncc2)c2ccccc21,-22%,2.8
CC(=O)Nc1ccc2c(c1)OCCOCCOc1ccc(NC(C)=O)cc1OCCO2,-8%,1.09
Nc1nnc([C@@H]2CCOc3ccccc32)s1,1%,-0.15
C[C@H]1CCCCN1C(=O)c1csc(=O)[nH]1,-3%,0.35
COc1ccnc(N(C)C2CCCCC2)n1,7%,-0.58
O=C(c1cc(C2CC2)on1)N1CC(n2ccnn2)C1,0%,-0.02
Cc1cc(C(F)(F)F)n(C[C@@H](C)CNc2nnc(C)o2)n1,-31%,2.72
C#CC(C)(C)N(C)S(=O)(=O)c1ccccc1OC(F)F,0%,-0.04
COc1ccc(CN2CCNC(=O)[C@@H]2CC(=O)N2CCCC2)c(F)c1,-10%,1.73
COC(=O)C1CCN2C(=O)N(c3ccc(OCC(F)(F)F)cc3)C(=O)C2C1 (centres undefined),-1%,0.11

Structure (SMILES),% Inhibition,Z score
Cc1cc(C)c2c3ccccc3n(CCNC(=O)C(C)(C)C)c2n1,27%,-3.05
C[C@H]1COCCN1C(=O)NCc1ccc2c(c1)COC2,-2%,0.3
Cc1ccc(-c2cc(CN(Cc3ccco3)C(=O)c3ccco3)no2)c(C)c1,4%,-0.52
CCc1ccc(C(=O)N2CCC(CN3CCN(C)C[C@@H]3C)CC2)cc1,-12%,1.34
O=C(NCc1ccccn1)N(CCO)CCOCC(F)(F)F,-2%,0.43
COc1ccc2c(c1)CCN2C(=O)C1CCCC(C(=O)O)C1 (centres undefined),-13%,1.82
CCS(=O)(=O)N1CCC[C@H](C(=O)Nc2cnn3ccccc23)C1,-8%,1.07
O=C(Nc1cccc(Cl)c1)c1ccc(Nc2ccnc(-c3ccc(F)cc3)n2)cc1,11%,-1.63
CC1(C)CN(c2nnc([C@@H]3COCCO3)n2Cc2cccs2)CC(C)(C)O1,-3%,0.58
O=C1C[C@H](NCc2ncc[nH]2)CN1c1ccccc1,-6%,0.88
CN(C)c1cnn(CC(=O)NCCc2nccs2)c(=O)c1,-5%,0.82
CC(C)(C)OC(=O)N1CCC(OCc2cccc(Br)c2)CC1,-15%,2.45
Cn1cccc1CCNC(=O)c1ccc(F)cc1,31%,-3.95
Cc1c(C(=O)N2CCOCC2)c(C(F)(F)F)nn1C1CCN(C)CC1,-7%,1.33
N#Cc1cccc(C2NC(=O)C3C4CCCC4CN23)c1 (centres undefined),-7%,1.18
Cc1nc(CN2CCN(C(=O)CC(C)C)[C@H]3CS(=O)(=O)C[C@H]32)co1,-23%,2.3
Cc1ncsc1C(=O)N[C@H]1CCN(c2ccc(Cl)cc2)C1,2%,-0.25
O=C(NCC1CC1)[C@@H]1CCCCC(=O)N1Cc1ccccc1,-6%,0.92
COC(=O)CNC(=O)C1CCCC(C(=O)NCC(=O)OC)C1 (centres undefined),-36%,4.21
CC12CC(CN1C(=O)NCC1CCN(Cc3ccncc3)CC1)C2,6%,-0.96
COc1ccc(N2C[C@@H](C(=O)N3CCOCC3)CC2=O)cc1,14%,-1.86
Cc1noc(CCN2C(=O)c3ccccc3C2=O)n1,-5%,0.55

Structure (SMILES),% Inhibition,Z score
CN(C)c1ccc(NC(=O)c2cccnc2O)cn1,-20%,3.06
NC(=O)[C@@H]1CCCN1c1ccc(-c2nc(-c3ccccc3F)no2)cn1,10%,-1.32
Cn1ccnc1CNC(=O)NCCCc1ccc(Cl)cc1Cl,10%,-1.33
CCC(CC)n1ncc(C)c1NC(=O)[C@H]1C(C)=C1c1ccccc1,-6%,1.24
Cc1ccnc(-c2noc(-c3ncccc3S(C)(=O)=O)n2)c1,-6%,0.81
COc1nn(C)cc1CNC(=O)N[C@@H](C)c1cccc(O)c1,-3%,0.61
Cc1c(NC(=O)CCNC(=O)C2CCCC2)cccc1C(=O)N1CCc2sccc2C1,-3%,0.54
C[C@@H](C(N)=O)N1CCOCC(F)(F)C1,-14%,1.36
C[C@@H](CC(=O)c1ccco1)NC(=O)C1(C#N)CCCC1,33%,-3.78
Cc1ccc(C)c(N(C(=O)CCN2CCCS2(=O)=O)C(C)C)c1,-4%,0.44
CC(C)(C)C1OCCCC1CNS(N)(=O)=O (centres undefined),10%,-1.49
COCc1cc(C(=O)Nc2ccc3nc(C)sc3c2)no1,-3%,0.47
CC(C)[C@H](NC(=O)Nc1cnnn1C)c1cnn(C)c1,5%,-0.57
C[C@H](NC(=O)CCC1CCOCC1)c1ncc(Br)cn1,1%,-0.19
COc1ccc(S(=O)(=O)NC[C@H]2Cn3cc(-c4ccc(C)cc4)nc3CO2)cc1,-8%,1.03
O=C(CCC(F)(F)F)N1CC[C@@]2(CCCN(CCc3ccccc3)C2)C1,-24%,2.16
Cc1ccc(C)c(CN2CC(=O)N(Cc3cccc(C(F)(F)F)c3)c3ccccc3S2(=O)=O)c1,15%,-1.71
O=S(=O)(N[C@H]1[C@H](O)[C@H](O)C[C@@H]1c1ccccc1)c1ccccc1,15%,-1.71
NC(=O)c1ccc(CNCC2CC3C=CC2C3)cc1 (centres undefined),6%,-0.52
CCc1n[nH]c(NS(=O)(=O)c2ccc(C)o2)n1,-8%,0.91
CCn1nc(-c2ccc(C(=O)N3CCOCC3)cc2)nc1N(C)C,3%,-0.39
